Assay results reported in paper PMC4336329 (PLoS ONE, 2015).
Among all 310,000 compounds or so, about 2,200 (0.71%) showed an effect of 50% or more. Effects have a minus sign here. Some of the results follow.

molecular target: human ether-à-go-go-related gene (hERG) potassium channel (human, UniProt Q12809); experiment: primary screen, population patch clamp on CHO cells stably expressing hERG
Sequence (Q12809 whole entry, looked up): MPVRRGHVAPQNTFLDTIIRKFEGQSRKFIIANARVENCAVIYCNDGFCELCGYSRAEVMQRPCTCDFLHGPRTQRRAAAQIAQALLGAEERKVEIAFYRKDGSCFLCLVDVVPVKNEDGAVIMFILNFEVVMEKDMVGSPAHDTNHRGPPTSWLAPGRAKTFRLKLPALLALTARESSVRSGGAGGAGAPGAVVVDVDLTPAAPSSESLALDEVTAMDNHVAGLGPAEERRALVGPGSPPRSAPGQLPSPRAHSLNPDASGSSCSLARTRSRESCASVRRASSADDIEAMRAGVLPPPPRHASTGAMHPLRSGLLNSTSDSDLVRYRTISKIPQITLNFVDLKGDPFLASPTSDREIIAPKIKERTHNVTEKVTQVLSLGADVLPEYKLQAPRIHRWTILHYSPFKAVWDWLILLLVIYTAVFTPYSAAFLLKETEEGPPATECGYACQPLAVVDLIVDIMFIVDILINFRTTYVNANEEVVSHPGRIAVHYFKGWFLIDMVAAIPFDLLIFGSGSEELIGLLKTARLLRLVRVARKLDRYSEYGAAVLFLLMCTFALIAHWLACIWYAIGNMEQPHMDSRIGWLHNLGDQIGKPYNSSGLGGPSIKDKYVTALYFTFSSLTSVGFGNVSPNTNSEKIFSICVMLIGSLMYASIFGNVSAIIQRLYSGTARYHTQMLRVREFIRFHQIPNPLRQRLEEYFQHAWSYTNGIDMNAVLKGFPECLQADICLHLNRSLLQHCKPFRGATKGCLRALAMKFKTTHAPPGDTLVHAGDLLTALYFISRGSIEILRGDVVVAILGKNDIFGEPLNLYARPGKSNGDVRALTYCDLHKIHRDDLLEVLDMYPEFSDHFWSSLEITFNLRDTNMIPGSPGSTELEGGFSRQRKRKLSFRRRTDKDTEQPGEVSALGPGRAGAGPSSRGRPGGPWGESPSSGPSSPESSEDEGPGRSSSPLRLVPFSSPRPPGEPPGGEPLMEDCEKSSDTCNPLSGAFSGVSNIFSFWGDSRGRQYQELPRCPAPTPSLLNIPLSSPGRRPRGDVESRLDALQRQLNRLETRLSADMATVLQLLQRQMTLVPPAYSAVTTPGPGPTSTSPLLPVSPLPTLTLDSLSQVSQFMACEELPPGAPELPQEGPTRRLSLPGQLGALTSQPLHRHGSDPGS

Row | Structure (SMILES) | hERG current change (%, negative = inhibition) at 1uM [%]
1 | Cc1ccc(S(=O)(=O)N(C)C)cc1NC(=O)CN1CCN(Cc2ccccc2)CC1.Cl | 3.57
2 | Nc1nc(SCC(=O)Nc2cccc(S(=O)(=O)N3CCCCCC3)c2)n[nH]1 | 6.11
3 | CCN(C(=O)CSc1ncn[nH]1)c1c(N)n(Cc2ccccc2)c(=O)[nH]c1=O | 16.2
4 | O=C(NCc1ccc2c(c1)OCO2)c1ccc(Cl)c(S(=O)(=O)N2CCOCC2)c1 | -8.32
5 | Nc1cc(-c2ccccc2)nn1Cc1ccc(Cl)cc1 | -2.88
6 | COc1ccc(C(=O)NNS(=O)(=O)c2ccc(OC)cc2)cc1 | 7.96
7 | O=c1cnc2ccccc2n1CC1CCCCC1 | 15.5
8 | COc1cc(/C=C/C(=O)O)cc(S(=O)(=O)NCCCO)c1OC | 9.06
9 | COC(=O)c1cn(Nc2ncc(C(F)(F)F)cc2Cl)c(=O)c2ccccc12 | 10.2
10 | CNC(=O)/C(C#N)=C1/SC(Cc2ccc(F)cc2)C(=O)N1c1ccccc1 (stereo not shown) | 10.6
11 | COc1ccc(NC(=O)N2CCN(c3nc(-c4cccc(OC)c4)cs3)CC2)cc1 | 9.83
12 | COc1ccc2[nH]c3c(=O)n4c(nc3c2c1)SCC4 | 9.77
13 | Cc1ccc(C(=O)NNC(=O)Cn2nnc3ccccc32)cc1 | 13.6
14 | COc1ccc(/C=C/C(=O)c2cccc(-n3cnnn3)c2)cc1O | 12.5
15 | COC(=O)C1=CN(C(C)C)C=C(C(=O)OC)C1c1cc(Br)c(OC)c(OC)c1 | 5.14
16 | Clc1cc(Cl)c2nc(N3CCCCC3)sc2c1 | 7.59
17 | CCn1c(SCC(=O)c2ccc(F)cc2)nnc1-c1ccoc1C | 8.06
18 | Clc1ccccc1Cn1nnc(-c2cccs2)n1 | 11.8
19 | CC1=CC(C)(C)NC(=S)N1NC(=O)c1ccccc1Cl | 2.9
20 | Cc1ccc2cccc(OCC(=O)c3cc(C)n(Cc4ccco4)c3C)c2n1 | 14.7

Row | Structure (SMILES) | hERG current change (%, negative = inhibition) at 1uM [%]
21 | c1ccc(COC2CCCN(Cc3nc(Cc4ccccc4)no3)C2)cc1 (stereo not shown) | 6.04
22 | CCc1nc(SCC(=O)Nc2cc(OC)ccc2OC)c2c(C)c(C)sc2n1 | 6
23 | COc1nc(Nc2ccc(C(C)C)cc2)nc(OC)n1 | 4.06
24 | CCOC(=O)N1CCC(NC(=O)Cn2cc3c(n2)CCCCC3)CC1 | 12.8
25 | C/C(=N\NC(N)=S)c1ccncc1 | 9.74
26 | Cc1ccsc1/C=N/NC(=O)CC(=O)NCC(C)C | 8.47
27 | CCC(C)c1c(O)nc(SCC(=O)N2CCCCCC2)[nH]c1=O (stereo not shown) | 17.1
28 | CC(=O)O[C@H](COc1c2ccoc2cc2oc(=O)ccc12)C(C)(C)O.O | 2.66
29 | O=C(/C=C/c1ccccc1)NC1CCS(=O)(=O)C1 (stereo not shown) | 16.8
30 | CC(C)CCN1CCN(CCCn2cccn2)CC1CCO (stereo not shown) | 4
31 | CCC(CC)C(=O)Nc1nnc(CCc2ccccc2)s1 | 16.2
32 | Cc1nc2ccccc2c(=O)n1-c1ccc(Cl)cc1[N+](=O)[O-] | 13.5
33 | COc1ccc(N2CCN(CCCNC(=O)C(=O)c3c(C)[nH]c4ccccc34)CC2)cc1 | -2.09
34 | COc1cccc(OC)c1C(=O)Nc1cccc(-c2ccc3nncn3n2)c1 | 11.8
35 | O=C(NCc1cccnc1)/C(=C/c1ccc(Cl)cc1)NC(=O)c1ccccc1 | -60.8
36 | OC/C(Br)=C(\Br)CO | 9.04
37 | COC(=O)C1=C(N)Oc2cc(C)[nH]c(=O)c2C1c1ccccc1OC (stereo not shown) | 9.49
38 | CNc1nnc(Sc2ncccc2[N+](=O)[O-])s1 | 5.03
39 | COc1ccc2nc3oc(C(=O)N4CCN(c5cccc(C(F)(F)F)c5)CC4)cc3cc2c1 | 11.4
40 | COc1ccc(/C(O)=C2/C(=O)C(=O)N(CCN3CCOCC3)C2c2ccccn2)cc1OC (stereo not shown) | 2.2

Row | Structure (SMILES) | hERG current change (%, negative = inhibition) at 1uM [%]
41 | CC(C(=O)Nc1ccc(C(N)=O)cc1)N1C(=O)c2ccccc2S1(=O)=O (stereo not shown) | 6.21
42 | COc1ccc(/C=N/NC(=O)c2nc(-c3ccccc3)cc(-c3ccccc3)n2)cc1 | 11.8
43 | O=C(CCNC(=O)c1ccc(Br)cc1)NCCCc1ccccc1 | 8.93
44 | CCCN(C(=O)CSCC(=O)Nc1cccc(C)c1)c1c(N)n(Cc2ccccc2)c(=O)[nH]c1=O | 5.16
45 | Nc1ccc(Sc2ccc([N+](=O)[O-])cc2)cc1 | 4.81
46 | CC1=C(C(=O)Nc2ccccn2)C(c2ccc(N(C)C)cc2)n2ncnc2N1 (stereo not shown) | -39.1
47 | CCOC(=O)c1cnc(-n2nc(C)cc2C)nc1N1CC(C)OC(C)C1 (stereo not shown) | 0.965
48 | CCNC(=O)COC(=O)c1ccc(-n2nc(C)cc2C)cc1 | -1.37
49 | Cc1ccc2nc(NS(C)(=O)=O)sc2c1 | 16.1
50 | Cc1ccc(C(=O)NC2CCCC(C)C2C)cc1S(=O)(=O)N1CCCCC1 (stereo not shown) | -1.19
51 | O=C(Nc1ccccc1C(=O)O)c1cccc(S(=O)(=O)Nc2ccc(Br)cc2)c1 | 15.2
52 | O=C(C1CCCO1)N1CCc2ccccc21 (stereo not shown) | 22.1
53 | CCOC(=O)c1c(C)[nH]c(C)c1S(=O)(=O)NCCc1ccco1 | 6.29
54 | Cc1cc(C)n(-c2ccc(C(=O)OCC(=O)c3ccc(Br)s3)cc2)n1 | 7.91
55 | CC1=NN(c2nc(C)cc(C)n2)C(=O)C1CCC(C)C (stereo not shown) | 3.35
56 | Cc1cccc(C)c1NC(=O)c1sccc1SCc1cccc(C(F)(F)F)c1 | 5.2
57 | O=C(Nc1cccc2ccccc12)N1CCOCC1 | 16.3
58 | Cc1sc2nc(SCC(=O)C(C)(C)C)n(Cc3ccco3)c(=O)c2c1C | 19.2
